Source: US11457629B2, “Heteroarylphenylaminoquinolines and analogues” (Bayer Aktiengesellschaft, priority 2017, dated 2022)

Procedure, shortened: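 Reversed-phase HPLC under acidic conditions (0.1% formic acid), following EEC directive 79/831 Annex V.A8. Log P was derived from retention time by linear interpolation between straight-chain alkan-2-ones (C3–C16) of known Log P. Where several values arose within one method, all are listed, joined by "+".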

Row | logP | Log P | SMILES
1 | 2.58 ^[a] | – | Cc1nc2ccccc2cc1Nc1ccccc1-c1ccnn1C(C)(C)C [Example I-010]
2 | 3.06 ^[a] | – | CCn1nccc1-c1ccccc1Nc1nc2ccccc2nc1C [Example I-159]
3 | 2.00 ^[a] | – | Cn1nccc1-c1c(F)cccc1Nc1cnc2ccnn2c1 [Example I-094]
4 | – | 2.84 ^[a] | CCn1nccc1-c1c(F)c(F)cc(F)c1Nc1nc2ccccc2nc1C [Example I-328]
5 | – | 3.00 ^[a] | Cc1nc2c(F)c(F)ccc2cc1Cc1ccccc1-c1ccnn1C [Example I-290]
